Source: paper PMC4336329 (PLoS ONE, 2015)
About 2,200 (0.71%) of roughly 310,000 compounds showed an effect of 50% or more. The effect is printed as a negative number. The list shows a part of the results.

Biological target: human ether-à-go-go-related gene (hERG) potassium channel (human, UniProt Q12809)
Assay: primary screen, population patch clamp on CHO cells stably expressing hERG

human ether-à-go-go-related gene (hERG) potassium channel, sequence (Q12809 whole entry, looked up): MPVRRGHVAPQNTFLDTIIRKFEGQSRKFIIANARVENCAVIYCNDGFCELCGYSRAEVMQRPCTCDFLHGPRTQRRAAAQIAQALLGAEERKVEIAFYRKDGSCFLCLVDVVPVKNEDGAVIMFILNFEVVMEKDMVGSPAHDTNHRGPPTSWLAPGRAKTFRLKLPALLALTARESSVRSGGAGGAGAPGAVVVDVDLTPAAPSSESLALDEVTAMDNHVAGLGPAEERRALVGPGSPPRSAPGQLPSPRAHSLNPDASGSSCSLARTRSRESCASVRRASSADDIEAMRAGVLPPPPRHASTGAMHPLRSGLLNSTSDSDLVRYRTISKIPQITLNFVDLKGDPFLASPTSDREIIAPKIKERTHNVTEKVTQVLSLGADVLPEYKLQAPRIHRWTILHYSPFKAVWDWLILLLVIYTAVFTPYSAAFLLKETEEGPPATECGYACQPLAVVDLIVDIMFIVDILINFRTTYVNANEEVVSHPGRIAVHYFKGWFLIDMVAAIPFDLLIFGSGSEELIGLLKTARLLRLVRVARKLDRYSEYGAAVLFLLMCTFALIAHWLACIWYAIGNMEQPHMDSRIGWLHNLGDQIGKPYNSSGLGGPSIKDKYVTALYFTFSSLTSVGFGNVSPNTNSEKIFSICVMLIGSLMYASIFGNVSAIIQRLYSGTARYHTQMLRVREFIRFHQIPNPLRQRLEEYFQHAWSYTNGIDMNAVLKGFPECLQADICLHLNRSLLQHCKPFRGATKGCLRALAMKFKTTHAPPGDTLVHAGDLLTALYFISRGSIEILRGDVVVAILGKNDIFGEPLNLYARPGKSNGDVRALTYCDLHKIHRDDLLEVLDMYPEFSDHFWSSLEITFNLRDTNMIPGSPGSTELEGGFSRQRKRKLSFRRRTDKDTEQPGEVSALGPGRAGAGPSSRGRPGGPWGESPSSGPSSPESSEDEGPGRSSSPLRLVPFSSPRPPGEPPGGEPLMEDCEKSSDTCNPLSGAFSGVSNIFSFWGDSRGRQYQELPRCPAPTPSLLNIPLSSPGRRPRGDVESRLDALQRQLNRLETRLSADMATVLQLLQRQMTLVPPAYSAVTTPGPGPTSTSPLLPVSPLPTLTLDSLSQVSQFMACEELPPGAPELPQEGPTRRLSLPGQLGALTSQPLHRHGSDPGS

SMILES	hERG current change (%, negative = inhibition) at 1uM [%]
COc1cc(O)oc1C=Nc1ccc(Cl)cc1Cl	11
COc1cc(C(=O)NC(C)Cc2cccs2)cc(OC)c1OC (stereo not drawn)	-13.1
CCOc1ccc(C(=O)N[C@H](C(=O)O)C(C)C)cc1	10.5
COc1cc(C2c3sc(=O)[nH]c3SC3C(=O)N(c4ccc(Br)cc4)C(=O)C32)ccc1O (stereo not drawn)	-0.407
CCOc1cccc(C2c3c(oc4ccccc4c3=O)C(=O)N2c2ccccn2)c1 (stereo not drawn)	8.31
COc1ccc(CN(CC2CCCO2)C(=O)c2cc3ccccc3oc2=O)cc1 (stereo not drawn)	3.59
Cc1nnc(SCc2ccc(F)cc2)s1	8.55
CCn1nc(C)cc1C(=O)N1CCCC(N2CCN(c3ccccc3OC)CC2)C1 (stereo not drawn)	1.73
Cc1ccc(C)c(S(=O)(=O)N2CCN(C(=O)c3ccccn3)CC2)c1	4.9
CN(C)CCCN(C(=O)C1COc2ccccc2O1)c1nc2cc3c(cc2s1)OCO3.Cl (stereo not drawn)	-21.3
CSc1ccc(C2N=C(c3ccccc3)NO2)cc1 (stereo not drawn)	16.1
COc1ccc(C2CC(c3ccccc3OC(C)=O)=NN2C(=O)/C=C/c2ccccc2)cc1 (stereo not drawn)	11.4
CC1CN(S(=O)(=O)c2ccc(C(=O)OCc3ccc(C#N)cc3)cc2)CC(C)O1 (stereo not drawn)	-0.886
Cc1oc(-c2ccccc2)cc1C(=O)Nc1cccc(C(=O)O)c1	-2.54
O=C(Cn1cc2c(n1)CCCCC2)Nc1c(F)c(F)cc(F)c1F	12.2
Cc1cc(C)c(C(=O)C(C)OC(=O)c2ccc(Cl)nc2)cc1C (stereo not drawn)	13.7
O=C(CCCn1c(=O)[nH]c2cc(Cl)ccc2c1=O)NCCCN1CCN(c2ccc(F)cc2)CC1	-15.4
COc1cc([N+](=O)[O-])cc(/C=N/NC(=O)Cn2nc(C)cc2C)c1O	15.4
CCCCC(=O)Nc1ccc(C(=O)c2ccccc2)cc1	4.39
CC(=O)N1CCN(Cc2nc3cc(NC(=O)c4ccccc4Cl)ccc3n2C)CC1	6.05
Cc1nn(-c2ccccc2)c(Cl)c1/C=N/NC(=O)c1nn(C)cc1[N+](=O)[O-]	6.06
Cc1ccccc1-n1cnc2cc(NCc3cccs3)ccc21	2.42

SMILES	hERG current change (%, negative = inhibition) at 1uM [%]
Cc1cccc(C)c1NC(=O)CC(NCc1ccco1)C(=O)O (stereo not drawn)	6.7
CCOc1ccc(CN2CCNC(=O)C2CC(=O)N(C)C2CCCCC2)cc1 (stereo not drawn)	22.9
C[C@@H](CN1CCC(Cc2ccccc2)CC1)[C@@H](O)c1ccc(O)cc1.Cl	-60.5
CCOc1ccc(CCNS(=O)(=O)c2ccc3c(c2)NC(=O)CC(=O)N3)cc1OCC	11.6
CN1CCN(CCNC(=O)Nc2ccccc2C(F)(F)F)CC1	4.35
COc1ccc(NC(=S)N/N=C/c2ccc(F)c(F)c2)cc1	11.7
CCOC(=O)C1(CCOc2ccccc2)CCN(Cc2cc(OC)c(O)cc2Cl)CC1	7.21
CN(C)C(=O)Cn1c(=O)n(C)c2ccccc21	1.54
CCCc1nc2oc3cc(OC)ccc3c(=O)c2c(=O)n1Cc1ccco1	2.53
O=C(CSc1ccc([N+](=O)[O-])cn1)Nc1cc(C(F)(F)F)ccc1N1CCOCC1	14.8
COc1ccc(CN2C(=O)c3cccnc3C2Nc2ccc(OC)c(Cl)c2)cc1 (stereo not drawn)	-0.379
Cc1ccc(-c2nnn(C/C(N)=N/O)n2)cc1	10.4
FC(F)Oc1ccccc1C1CC(c2ccc(Br)s2)Nc2ncnn21 (stereo not drawn)	14.5
CC(C)c1ccccc1NC(=O)c1ccccc1NC(=O)C1CCCCC1	7.38
CCC(C)NC(=O)C1CCN(S(=O)(=O)c2cccc3cccnc23)CC1 (stereo not drawn)	0.398
COc1ccc2c(c1)-c1c(ssc1=S)C(C)(C)N2	10.3
O=C(c1ccc(S(=O)(=O)Cc2ccccc2F)c([N+](=O)[O-])c1)N1CCCC1	9.81
CCC1(CC)C(=O)C(C)(C)C(=O)OC1c1ccccn1 (stereo not drawn)	7.87
CC(C)(C)NC(=O)c1cccc(NC(=O)Cc2ccc(Br)cc2)c1	5.72
COc1ccc(/C=N\NC(=O)c2cc(O)c(O)c(O)c2)cc1CN1CCN(c2ccc(F)cc2)CC1	10.4
CCn1cc(/C=N/NC(=O)c2ccc(C#N)cc2F)c2ccccc21	-6.05
CN(C)c1cccc2c1c(NC(=O)Nc1ccccc1)nn2C	8.15

SMILES	hERG current change (%, negative = inhibition) at 1uM [%]
O=C(NNc1nc2ccccc2s1)C1CC1	3.55
CC(C)(C)OC(=O)N1CCC(CC2CC(c3ccccc3)=NO2)(C(=O)NCc2ccccc2)CC1 (stereo not drawn)	1.67
COc1ccccc1N1CCN(CC(O)c2ccccc2)CC1 (stereo not drawn)	12
Cc1ccc(C(=O)N=c2sccn2C)cc1C	6.34
Cc1c(C#N)c(N=CN(C)C)c(C(=O)c2ccccc2)n1-c1ccccc1	5.42
O=C(Cc1ccc(F)cc1)OCn1nnc2ccccc2c1=O	11.4
COc1cc(COCC(O)CN2CCN(CCN3C(=O)c4cccc5cccc(c45)C3=O)CC2)cc(OC)c1OC.Cl (stereo not drawn)	-6.37
Cc1ccc(S(=O)(=O)Nc2cc(C(C(=O)OC(C)C)C(=O)C(F)(F)F)c(O)c3ccccc23)c(C)c1 (stereo not drawn)	15.2
CSCC(CO)NS(=O)(=O)c1ccc(C)cc1 (stereo not drawn)	12.1
O=C(NCCc1c[nH]c2ccc(Cl)cc12)c1cccnc1	4.84
CCOC(=O)N1CCC(Nc2c(-c3ccccc3)c(=O)c2=O)CC1	1.25
Cc1ccccc1NS(=O)(=O)c1ccc(C(=O)N2CC(C)OC(C)C2)cc1 (stereo not drawn)	8.07
O=C(COC(=O)c1cccc(S(=O)(=O)N2CCc3ccccc32)c1)Nc1ccc(Cl)cn1	10.3
O=C(CSc1ccc(-c2cccnc2)nn1)Nc1ccccc1	12.1
CCOC(=O)N1CCC(NC(=O)c2cccc3c2C(=O)N(Cc2cccnc2)C3)CC1	2.17
Cc1ccc(O)c(C(=O)c2cc(C(=O)NCc3ccccc3)c(=O)n(Cc3ccccc3)c2)c1	14.5
COc1cccc(CN(C)C(=S)Nc2ccc(C)c(C)c2)c1	10
COc1ccc(CC(=O)NCC2CCCN(Cc3ccc(OC)cc3F)C2)cc1 (stereo not drawn)	6.22
CC1CCCCC1NC(=O)COC(=O)/C=C/c1ccc2c(c1)OCO2 (stereo not drawn)	16.5
CCN(CC1CCCN(CCc2cccc(OC)c2)C1)C(=O)C=C(C)C (stereo not drawn)	-6.97
CCN(CC)CCOC(=O)c1ccc(N/C=C(/C#N)c2nc(-c3ccc(OC)c(OC)c3)cs2)cc1	10.9
Cc1ccc(S(=O)(=O)Nc2ccc(NC(=O)Nc3ccc(F)cc3F)cc2)cc1	0.874

SMILES	hERG current change (%, negative = inhibition) at 1uM [%]
Cc1ccc(/C=C/C(=O)OCC(=O)NC(C)C)o1	7.15
CCOC(=O)c1c(NC(=S)NC(C)=O)sc(C)c1C	13.3
Cc1cccc(NCc2nc(SCC(=O)Nc3ccccc3)n[nH]2)c1	13.6
COc1ccc(CCNC(=O)CNS(=O)(=O)c2ccc(Cl)cc2)cc1	6.58
Cc1ccc(CN2CCN(/N=C\c3cccc([N+](=O)[O-])c3)CC2)cc1	7.04
CC1Cc2ccccc2N1C(=O)CSc1nnc2n1C(C)(C)Cc1ccccc1-2 (stereo not drawn)	14.8
Oc1cccc(/C=N/Nc2ccc(Cl)nn2)c1O	11.2
Cc1cc(Nc2ccc3ccccc3c2)n2ncnc2n1	-0.317
Cc1cc(/C=C2\Cc3ccccc3C2=O)c(C)n1-c1ccccc1	-5.15
O=C1c2ccccc2C(=O)N1CCc1csc(-c2ccc(F)cc2)n1	4.06
COCCN(C(=S)Nc1ccccc1OC)C(C)c1cccs1 (stereo not drawn)	8.52
CN(C)c1ccc(/C=C/C(=O)c2ccccc2)cc1[N+](=O)[O-]	-0.74
COc1ccc(N(CC(=O)NCCC2=CCCCC2)S(=O)(=O)c2ccc(C)cc2)cc1	10.2
COC(=O)c1ccc(C(=O)OC)c(NC(=S)N2CCCCC2C)c1 (stereo not drawn)	-6.37
COc1ccc(CC(=O)N[C@@H](C)C(=O)N2CCC3(CC2)NCCc2[nH]cnc23)cc1	5.92
CC(=NCCc1ccccc1)c1c(O)[nH]c(=O)[nH]c1=O	3.43
CCOc1ccc(CCNC(=O)CN(C)S(=O)(=O)c2ccc3c(c2)CCC(=O)N3)cc1OCC	11.1
Cc1cccc(/C=N/n2c(C3CCCCC3)n[nH]c2=S)c1	5.65
CC1Sc2ccc(C(=O)OCc3ccccc3Cl)cc2NC1=O (stereo not drawn)	17.6
COc1ccccc1NC(=O)CS(=O)(=O)c1cn(CC(=O)N(C(C)C)C(C)C)c2ccccc12	-0.963
CC(C)(C)c1ccc(COC(=O)CNC(=O)CNC(=O)Cc2ccccc2)cc1	5.88
